Assay results as given in article PMC9969854.
No constants are given. Whether binding was seen depends on the method and setting. For part of these data: In cells and extracts the contact can be indirect. Some results given as binding are weak or reduced against the parent protein; the word gives no strength.

Tests used:
[1] = molecular target: T1, OsYABBY3 (rice (Oryza sativa)) (UniProt Q8L556); assay: two-hybrid; OsYABBYs as bait in pGBKT7, OsWOX3A or OsWUS as prey in pGADT7; yeast AH109; growth on SD/-Leu/-Trp/-His/-Ade medium
T1 sequence: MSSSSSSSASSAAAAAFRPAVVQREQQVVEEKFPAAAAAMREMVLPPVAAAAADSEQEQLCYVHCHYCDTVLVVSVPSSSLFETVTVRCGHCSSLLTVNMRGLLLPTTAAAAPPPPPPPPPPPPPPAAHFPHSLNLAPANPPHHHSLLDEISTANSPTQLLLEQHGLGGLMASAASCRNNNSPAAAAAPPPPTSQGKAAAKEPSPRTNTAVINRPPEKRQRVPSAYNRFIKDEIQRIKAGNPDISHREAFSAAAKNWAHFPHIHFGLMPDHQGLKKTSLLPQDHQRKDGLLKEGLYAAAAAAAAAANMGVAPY

[2] = molecular target: T2, OsYABBY1 (rice (Oryza sativa)) (UniProt Q7XIM7); assay: as above
T2 sequence: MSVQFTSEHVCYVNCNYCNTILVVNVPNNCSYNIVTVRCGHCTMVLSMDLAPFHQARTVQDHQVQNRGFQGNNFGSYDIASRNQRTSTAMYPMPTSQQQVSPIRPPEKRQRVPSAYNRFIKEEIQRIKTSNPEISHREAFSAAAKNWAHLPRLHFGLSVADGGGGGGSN

[3] = molecular target: T3, OsYABBY5 (rice (Oryza sativa)) (UniProt Q0JBF0); assay: as above
T3 sequence: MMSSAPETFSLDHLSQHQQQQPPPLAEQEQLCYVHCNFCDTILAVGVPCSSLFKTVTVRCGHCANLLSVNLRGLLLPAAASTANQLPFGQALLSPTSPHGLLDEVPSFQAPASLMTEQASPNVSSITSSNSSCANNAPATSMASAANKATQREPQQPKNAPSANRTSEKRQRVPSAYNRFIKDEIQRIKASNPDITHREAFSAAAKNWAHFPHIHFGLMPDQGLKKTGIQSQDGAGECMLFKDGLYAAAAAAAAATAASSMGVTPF

[4] = molecular target: T4, OsYABBY6 (rice (Oryza sativa)) (UniProt Q2QM17); assay: as above
T4 sequence: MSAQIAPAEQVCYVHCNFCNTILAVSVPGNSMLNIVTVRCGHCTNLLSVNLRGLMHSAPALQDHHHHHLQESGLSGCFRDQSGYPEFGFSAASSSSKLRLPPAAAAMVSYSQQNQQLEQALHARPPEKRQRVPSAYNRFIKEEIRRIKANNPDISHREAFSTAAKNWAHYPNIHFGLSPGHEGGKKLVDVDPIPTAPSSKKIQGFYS

[5] = molecular target: T5, OsYABBY2 (rice (Oryza sativa)) (UniProt Q10FZ7); assay: as above
T5 sequence: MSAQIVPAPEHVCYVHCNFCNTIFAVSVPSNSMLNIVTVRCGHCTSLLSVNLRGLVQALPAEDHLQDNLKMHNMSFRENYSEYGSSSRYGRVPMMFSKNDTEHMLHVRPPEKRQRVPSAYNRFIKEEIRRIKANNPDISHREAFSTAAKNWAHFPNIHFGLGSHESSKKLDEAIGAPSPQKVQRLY

[6] = molecular target: T6, OsYABBY4 (rice (Oryza sativa)) (UniProt Q6H668); assay: as above
T6 sequence: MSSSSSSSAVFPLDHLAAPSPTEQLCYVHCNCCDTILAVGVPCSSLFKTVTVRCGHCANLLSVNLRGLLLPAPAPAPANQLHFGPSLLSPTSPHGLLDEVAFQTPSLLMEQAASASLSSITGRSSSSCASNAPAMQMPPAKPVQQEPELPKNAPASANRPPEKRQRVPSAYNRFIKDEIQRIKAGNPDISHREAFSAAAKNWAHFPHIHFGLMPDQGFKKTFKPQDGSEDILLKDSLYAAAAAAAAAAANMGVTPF

[7] = molecular target: T1, OsYABBY3 (rice (Oryza sativa)); assay: split reporter; luciferase complementation imaging (LCI): OsYABBY in the N-luc vector, partner in the C-luc vector, expressed together in Nicotiana benthamiana; bioluminescence detected by Tanon5200
[8] = molecular target: T2, OsYABBY1 (rice (Oryza sativa)); assay: as above
[9] = molecular target: T3, OsYABBY5 (rice (Oryza sativa)); assay: as above
[10] = molecular target: T4, OsYABBY6 (rice (Oryza sativa)); assay: as above
[11] = molecular target: T5, OsYABBY2 (rice (Oryza sativa)); assay: as above
[12] = molecular target: T6, OsYABBY4 (rice (Oryza sativa)); assay: as above

B1: OsWUS (protein, UniProt Q7XM13 1-289)
chain: MDHMQQQQRQQVGGGGGEEVAGRGGVPVCRPSGTRWTPTTEQIKILRELYYSCGIRSPNSEQIQRIAAMLRQYGRIEGKNVFYWFQNHKARERQKKRLTTLDVTTTTAAAADADASHLAVLSLSPTAAGATAPSFPGFYVGNGGAVQTDQANVVNWDCTAMAAEKTFLQDYMGVSGVGCAAGAAPTPWAMTTTTREPETLPLFPVVFVGGDGAHRHAVHGGFPSNFQRWGSAAATSNTITVQQHLQQHNFYSSSSSQLHSQDGPAAGTSLELTLSSYYCSCSPYPAGSM
Question: For B1, which binding [1] is on record?
Answer: binds

Question: And the binding [2]?
Answer: no binding

Question: And the binding [3]?
Answer: binds

Question: What about the binding [4] of the same binder?
Answer: no binding

Question: What about the binding [5] of the same binder?
Answer: no binding

Question: What about the binding [6] of the same binder?
Answer: no binding

Question: And the binding [7]?
Answer: binds

Question: What about the binding [8] of the same binder?
Answer: no binding

Question: What about the binding [9] of the same binder?
Answer: binds

Question: And the binding [10]?
Answer: no binding

Question: What about the binding [11] of the same binder?
Answer: no binding

Question: What about the binding [12] of the same binder?
Answer: no binding
